According to ChEMBL document CHEMBL4888484, “Replenishing the malaria drug discovery pipeline: Screening and hit evaluation of the MMV Hit Generation Library 1 (HGL1) against asexual blood stage Plasmodium falciparum ,using a nano luciferase reporter read-out” (2022):
Out of some 150,000 compounds screened, about 540 (0.36%) showed an effect of 50% or more. The list shows a part of the results.

tested on: Plasmodium falciparum; experiment: Primary screen in NF54 nanoGlo assay, in single point, at 2uM, 72h; a lower Z score goes with more inhibition; format: functional, Erythrocyte; settings: timepoint 72 hour

| SMILES | % Inhibition [%] | Z score |
| --- | --- | --- |
| Cc1nnc2n1CC[C@@H](N(C)C(=O)c1ccc3ccccc3n1)CC2 | -10 | 1.51 |
| CCc1nc(C)c2c(n1)N(Cc1cccnc1)C(=O)CC2 | -3 | 0.49 |
| Nc1nc(-c2ccc(F)cc2)nn1C(=O)CCc1ccccc1 | -10 | 1.57 |
| Cc1ncc(CN[C@H]2CCCc3nc(-c4cccnc4)ncc32)n1C | 8 | -1.01 |
| COc1ccc(S(=O)(=O)N2CC[C@@H](c3ccccc3Cl)S(=O)(=O)CC2)cc1C | -1 | 0.24 |
| CC(C)(C)c1ccc2cc(C(=O)N[C@H]3CCCN(S(C)(=O)=O)C3)[nH]c2c1 | 6 | -0.98 |
| O=C(N[C@H]1C[C@@](CO)(c2ccccc2)C1)c1ccc(-c2cn[nH]c2)cn1 | -1 | 0.19 |
| O=C(NCC1(c2ccccc2)CC1)NC1CCCCCC1 | -4 | 0.81 |
| Cc1csc(NC(=O)C2=NN(c3ccccc3)[C@H](C(N)=O)C2)n1 | 15 | -1.98 |
| CN(c1cccnc1)S(=O)(=O)c1ccccc1 | -2 | 0.25 |
| Cc1ccc(C)c(-n2cc(CN3CCN(Cc4nccn4C)CC3)c(-c3ccccc3)n2)c1 | -9 | 1.05 |
| CCOC(C)C(=O)Nc1cc(C)n(C(C)CC)n1 (stereo not given) | -7 | 1.12 |
| Cc1cc(C)n(Cc2nnc3n2CCC3)n1 | -13 | 1.5 |
| O=S(=O)(NC1CC2CCC1C2)c1cncc(Br)c1 (stereo not given) | -6 | 0.77 |
| C1=CCN([C@H]2CCN(c3cc(-c4ccccc4)nc4ncnn34)C2)C1 | 0 | -0.05 |
| O=C(O)c1cc2oc(-c3ccc(Cl)c(Cl)c3)cc2[nH]1 | -40 | 4.75 |
| O=C(CCn1nc2ccccn2c1=O)N1CC=C(c2ccccc2)C1 | 2 | -0.23 |
| CCOC(=O)N1CCN(Cc2cnc3c(-c4ccccc4)cnn3c2)CC1 | -7 | 1.41 |
| Cc1ncc(CO)c(CN(C)Cc2ccccc2Cl)c1O | -1 | 0.14 |
| Cc1nc(-c2nc(C3CCCC3)nn2-c2ccc3nncn3n2)cs1 | -15 | 2.27 |
| Cc1noc(COCC(=O)NC(C)(C)CCc2ccccc2)n1 | 2 | -0.38 |
| Cc1n[nH]c(C)c1S(=O)(=O)N1CCC[C@H](c2cc[nH]n2)C1 | -8 | 1.34 |
| Cc1ccc(C(=O)C(=O)N(CC#N)C2CC2)cc1 | 2 | -0.26 |
| CCc1ncc(CN2CCC(OCc3ccccc3F)CC2)cn1 | -12 | 1.9 |
| Brc1ccccc1-c1nnc(COc2ccc3c(c2)OCO3)o1 | 0 | -0.05 |
| Cc1noc(C)c1C(=O)NC[C@H]1COc2ccccc2O1 | 5 | -0.58 |
| Cc1cc(CNc2ncnc3onc(C)c23)ccc1F | -3 | 0.47 |
| Cc1ccc2c(O)c(C(=O)N3C[C@@H](CO)[C@H](c4ccsc4)C3)cnc2n1 | -14 | 2.72 |

| SMILES | % Inhibition [%] | Z score |
| --- | --- | --- |
| COc1c([C@@H]2CCCN2c2nccc(C(F)(F)F)n2)c(C)nn1C | -4 | 0.38 |
| CCn1cc(CN2CCc3nnc(Cc4cccnc4)n3CC2)cn1 | 0 | -0.03 |
| CCc1ccc(C(=O)N[C@@H](C)C2CCN(C)CC2)[nH]1 | -16 | 1.43 |
| CC(C)(C)c1cc(NC(=O)c2ccc(CS(=O)(=O)C(F)F)cc2)n(C(C)(C)C)n1 | -16 | 2.2 |
| CCc1ccc(S(=O)(=O)N2CC(N3C(=O)CNC3=O)C2)s1 | -7 | 1.3 |
| CCCN(CC1CC1)C(=O)c1nc(NC(C)=O)ccc1Br | -4 | 0.72 |
| O=C1NCCN2CC3(CCN(C(=O)Nc4ccccc4F)CC3)C[C@@H]12 | -6 | 1.1 |
| CCC(Cc1ccc(C)cc1)NC(=O)NCC1CCC(O)C1 (stereo not given) | 3 | -0.47 |
| C1CC2(C1)CC(NC1CCC13CCC3)CCO2 (stereo not given) | 10 | -1.16 |
| CCCN1CCCN(S(=O)(=O)c2cnn(C)c2C)CC1=O | -5 | 0.78 |
| Cc1cccnc1CN(C)Cc1c(C)n[nH]c1C | 3 | -0.5 |
| CC(C)O[C@H]1CN(C(=O)Nc2cccnc2Oc2ccc(F)cc2)C[C@@H]1O | 4 | -0.82 |
| C#Cc1ccc(-c2nnc(-c3ccncc3)[nH]2)nc1 | -4 | 0.75 |
| CCCCCOC1CN(C(=O)Nc2nnc(C)s2)C1 | -3 | 0.34 |
| COC(=O)C1CN(C(=O)CCc2cnn(C)c2)CC1c1ccccc1 (stereo not given) | -13 | 2.28 |
| C[C@H](O)c1cc2n(n1)CCCN(C(=O)C(C)(C)Oc1ccc3c(c1)CCC3)C2 | 6 | -0.81 |
| O=C1NC(c2c(F)cccc2Cl)C(C(=O)C(F)(F)F)C(O)(c2ccccc2)N1 (stereo not given) | -15 | 2.04 |
| CCOC(=O)C1(CC2CC2)CCN(Cc2nccn2-c2cccc(C)c2)CC1 | -15 | 1.86 |
| COc1ccc(NC(=O)CS(=O)(=O)c2ccc3c(c2)S(=O)(=O)N=CN3)cc1Cl | -1 | 0.13 |
| CC(C)OCCCNc1ccc(C#N)c(N)n1 | 17 | -1.95 |
| CCN(C(=O)Cn1cccc(S(=O)(=O)N2CCOCC2)c1=O)c1ccccc1 | 5 | -0.97 |
| COCCN1C[C@H](CNC(=O)c2ccc(F)cc2F)OCC1=O | -16 | 2.12 |
| COc1cccc(C(=O)N[C@H](C(=O)N2CCCC2)C2CCN(C(=O)c3ccco3)CC2)c1 | 11 | -1.48 |
| Cc1nn(C)c(C)c1CNc1ccc(N2CCOCC2)nc1 | -7 | 0.99 |
| O=S(=O)(Nc1ccc(C2CC2)nn1)c1ccc(Cl)cc1 | 4 | -0.78 |
| CCCc1nc(NCCn2cnnc2)c2cnn(C)c2n1 | 3 | -0.32 |
| CC(C)N(CC(=O)Nc1nccs1)C(=O)COCc1ccccc1 | -7 | 0.71 |
